Measured values as given in the supplement of paper PMC9588766.
Counter-ions that a name gives are not always drawn. ± gives the standard deviation of the averaged measurements. Over roughly 2,000 compounds, “cell viability relative to DMSO control (compound alone)” has its median near 0.98; the lowest 2% begin near 0.23. This is one part of the list.

System: PDC-DUC18828
Assay: cell viability relative to DMSO control (compound alone) (fraction); PDC-DUC18828 is a patient-derived cholangiocarcinoma cell line; higher = less growth inhibition
Details: 1 µM; 72 h
Method: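 Selleck Bioactive library screen in the patient-derived FGFR2-G3BP2 fusion-positive ICC cell line PDC-DUC18828 (500 cells/well). Each compound was tested at 1 uM alone, in triplicate, for 72 h. Viability was read by CellTiter-Glo and normalised to plate DMSO controls.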

| SMILES | cell viability |
| --- | --- |
| CN(C)C(=O)COC(=O)Cc1ccc(OC(=O)c2ccc(NC(=N)N)cc2)cc1 [Camostat Mesilate] | 0.994 ± 0.03 |
| N=C(N)NC(=O)c1nc(Cl)c(N)nc1N [Amiloride HCl] | 1.02 ± 0.046 |
| C[C@H](NC(=O)Cc1cc(F)cc(F)c1)C(=O)N[C@H](C(=O)OC(C)(C)C)c1ccccc1 | 0.963 ± 0.034 |
| CNC(CC(=O)O)C(=O)O [NMDA (N-Methyl-D-aspartic acid)] | 0.997 ± 0.05 |
| CN1C2=CC(=O)/C(=N\NC(N)=O)C=C2CC1S(=O)(=O)O (stereo not given) [Carbazochrome sodium sulfonate (AC-17)] | 1.05 ± 0.073 |
| Cc1cc(Nc2ccc(NC(=O)c3ccc(Nc4ccnc5ccccc45)cc3)cc2)nc(N)n1 | 1.04 ± 0.019 |
| C[C@H](NC(=O)[C@@H](O)c1cc(F)cc(F)c1)C(=O)N[C@@H]1C(=O)N(C)c2ccccc2-c2ccccc21 | 0.935 ± 0.017 |
| C[C@]12CC[C@@H]3c4ccc(O)cc4CC[C@H]3[C@@H]1CC[C@@H]2OC(=O)CCC1CCCC1 [Estradiol Cypionate] | 1.01 ± 0.025 |
| CC(C)N(CCCNC(=O)Nc1ccc(C(C)(C)C)cc1)C[C@H]1O[C@@H](n2ccc3c(N)ncnc32)[C@H](O)[C@@H]1O | 0.978 ± 0.048 |
| CC(=O)Nc1ccc(NC(=S)NC(=O)c2ccc(C(C)(C)C)cc2)cc1 [Tenovin-1] | 0.876 ± 0.015 |
| CCOc1cc(C(=O)N2CCC(N3CCN(C)CC3)CC2)ccc1Nc1ncc2c(n1)N(C1CCCC1)c1ccccc1C(=O)N2C | 0.959 ± 0.046 |
| O=C(NOCCO)c1ccc2cncn2c1Nc1ccc(I)cc1F | 0.579 ± 0.053 |
| O=c1cc(-c2ccc(O)c(O)c2)oc2cc(O)cc(O)c12 [Luteolin] | 0.979 ± 0.091 |
| O=C(Cc1ccc(-c2ccc(OCCN3CCOCC3)cc2)cn1)NCc1ccccc1 | 0.275 ± 0.019 |
| Nc1ncn([C@H]2C[C@H](O)[C@@H](CO)O2)c(=O)n1 [Decitabine] | 0.901 ± 0.064 |
| CC(C)/N=c1\cc2n(-c3ccc(Cl)cc3)c3ccccc3nc-2cc1Nc1ccc(Cl)cc1 [Clofazimine] | 1 ± 0.039 |
| O=C1Cc2cc(CCN3CCN(c4nsc5ccccc45)CC3)c(Cl)cc2N1 [Ziprasidone HCl] | 1.02 ± 0.056 |
| CC1CCc2c(N3CCC(O)CC3)c(F)cc3c(=O)c(C(=O)O)cn1c23 (stereo not given) [Nadifloxacin] | 1.03 ± 0.078 |
| CCCN(CCc1cccs1)[C@H]1CCc2c(O)cccc2C1 [Rotigotine] | 1.1 ± 0.018 |
| Cc1cc(=O)n(-c2ccccc2)n1C [Antipyrine] | 0.976 ± 0.013 |
| Clc1ccc(COC(Cn2ccnc2)c2ccc(Cl)cc2Cl)c(Cl)c1 (stereo not given) [Miconazole] | 1.01 ± 0.013 |
| Clc1ccc(COC(Cn2ccnc2)c2ccc(Cl)cc2Cl)c(Cl)c1 (stereo not given) [Miconazole Nitrate] | 0.959 ± 0.079 |
| O=c1c2ccccc2oc2ccccc12 [Xanthone] | 1.03 ± 0.057 |
| CC(C)(C)C[C@@H]1N[C@@H](C(=O)N[C@H]2CC[C@H](O)CC2)[C@H](c2cccc(Cl)c2F)[C@]12C(=O)Nc1cc(Cl)ccc12 | 0.859 ± 0.047 |
| CO[C@H]1O[C@@H]2O[C@@]3(C)CC[C@H]4[C@H](C)CC[C@@H]([C@H]1C)[C@@]24OO3 [Artemether] | 0.858 ± 0.027 |
| Cn1ncc(Cl)c1-c1cc(C(=O)N[C@H](CN)Cc2cccc(F)c2)sc1Cl | 0.831 ± 0.022 |
| NC12CC3CC(CC(C3)C1)C2 [Amantadine HCl] | 1 ± 0.097 |

| SMILES | cell viability |
| --- | --- |
| CN1CCN(C2=Nc3cc(Cl)ccc3Nc3ccccc32)CC1 [Clozapine] | 1 ± 0.063 |
| CO[C@@H](C(=O)N1Cc2[nH]nc(NC(=O)c3ccc(N4CCN(C)CC4)cc3)c2C1)c1ccccc1 | 0.532 ± 0.011 |
| Cc1c(Cc2ccc3ccccc3n2)c2cc(F)ccc2n1CC(=O)O | 0.933 ± 0.051 |
| C=CC(=O)N1CCC(Oc2cc3c(Nc4ccc(Cl)c(Cl)c4F)ncnc3cc2OC)CC1 [Poziotinib (HM781-36B)] | 0.62 ± 0.041 |
| Brc1ccc([C@H]2CN3CCSC3=N2)cc1 [(-)-p-Bromotetramisole Oxalate] | 1 ± 0.069 |
| CC1(C)CCC(CN2CCN(c3ccc(C(=O)NS(=O)(=O)c4ccc(NCC5CCOCC5)c([N+](=O)[O-])c4)c(Oc4cnc5[nH]ccc5c4)c3)CC2)=C(c2ccc(Cl)cc2)C1 | 0.976 ± 0.072 |
| CCCCCCCCCCC[C@@H](C[C@@H]1OC(=O)[C@H]1CCCCCC)OC(=O)[C@H](CC(C)C)NC=O [Orlistat] | 0.955 ± 0.034 |
| CS(=O)(=O)c1cccc(CNc2nc(Nc3ccc4c(c3)CCC(=O)N4)ncc2C(F)(F)F)c1 | 0.898 ± 0.02 |
| Cc1ccc(NC(=O)c2ccc(CN3CC[C@H](N(C)C)C3)c(C(F)(F)F)c2)cc1Nc1nccc(-c2cncnc2)n1 [Bafetinib (INNO-406)] | 0.949 ± 0.028 |
| O=NO [Sodium Nitrite] | 0.985 ± 0.044 |
| O=C(O)CCC(=O)Nc1ccc(Br)cn1 [Bikinin] | 0.918 ± 0.019 |
| COc1ccc(C(=O)Nc2sc3c(c2C(N)=O)CCCC3)cc1OC | 1.13 ± 0.022 |
| CC(=O)[C@@]1(O)CC[C@H]2[C@@H]3CCC4=CC(=O)CCC4=C3[C@@H](c3ccc(N(C)C)cc3)C[C@@]21C [Ulipristal] | 0.931 ± 0.01 |
| CC(C)(Oc1ccc(Cl)cc1)C(=O)O [Clofibric Acid] | 0.997 ± 0.057 |
| COc1cc(Nc2ncc(F)c(Nc3ccc4c(n3)NC(=O)C(C)(C)O4)n2)cc(OC)c1OC [R406 (free base)] | 0.916 ± 0.058 |
| COc1cc(Nc2ncc(F)c(Nc3ccc4c(n3)NC(=O)C(C)(C)O4)n2)cc(OC)c1OC | 0.945 ± 0.04 |
| COc1cc2ncc(-c3ccccc3)nc2cc1OC [Tyrphostin AG 1296] | 1.14 ± 0.05 |
| CCC[C@H](Nc1nc(-c2ccc(NC(=O)NCC)c(OC)c2)ncc1C)c1cccnc1 [CYT997 (Lexibulin)] | 0.291 ± 0.024 |
| CC(C)(Sc1cc(C(C)(C)C)c(O)c(C(C)(C)C)c1)Sc1cc(C(C)(C)C)c(O)c(C(C)(C)C)c1 [Probucol] | 1.038 ± 0.0099 |
| C=CC(=O)Nc1cccc(Nc2nc(Nc3ccc(N4CCN(C(C)=O)CC4)cc3OC)ncc2C(F)(F)F)c1 | 0.932 ± 0.059 |
| CS(=O)(=O)CCNCc1ccc(-c2ccc3ncnc(Nc4ccc(OCc5cccc(F)c5)c(Cl)c4)c3c2)o1 | 0.975 ± 0.037 |
| Cn1ccnc1S [Methimazole] | 1.01 ± 0.031 |
| Nc1c(Br)cc(Br)cc1CN[C@H]1CC[C@H](O)CC1 [Ambroxol HCl] | 0.925 ± 0.061 |
| N#CC(c1ccc(Cl)cc1)c1c(Cl)cc(-n2ncc(=O)[nH]c2=O)cc1Cl (stereo not given) [Diclazuril] | 1.12 ± 0.028 |
| COc1cc(OC)c(C(=O)CCCN2CCCC2)c(OC)c1 [Buflomedil HCl] | 0.996 ± 0.029 |
| COc1ccc(CCNCc2ccc(OCc3ccc(Cl)nc3)c(OC)c2)cc1OC | 0.946 ± 0.037 |
| CCOc1ccc(Cc2cc([C@@H]3O[C@H](SC)[C@@H](O)[C@H](O)[C@H]3O)ccc2Cl)cc1 [Sotagliflozin (LX4211)] | 1.05 ± 0.061 |

| SMILES | cell viability |
| --- | --- |
| CC(C)(C)C(=O)OCOP(=O)(COCCn1cnc2c(N)ncnc21)OCOC(=O)C(C)(C)C [Adefovir Dipivoxil] | 0.695 ± 0.049 |
| CN1CCC(=C2c3ccccc3CC(=O)c3sccc32)CC1 [Ketotifen Fumarate] | 0.972 ± 0.036 |
| COc1ccccc1N1CCN(CC(O)COc2cccc3ccccc23)CC1 (stereo not given) [Naftopidil DiHCl] | 0.959 ± 0.049 |
| COc1ccccc1N1CCN(CC(O)COc2cccc3ccccc23)CC1 (stereo not given) [Naftopidil] | 0.989 ± 0.04 |
| Nc1nc(N)c2nc(-c3cccc(O)c3)cnc2n1 | 0.791 ± 0.027 |
| C/C=C1\NC(=O)[C@H]2CSSCC/C=C/[C@H](CC(=O)N[C@H](C(C)C)C(=O)N2)OC(=O)[C@H](C(C)C)NC1=O [Romidepsin (FK228, Depsipeptide)] | 0.0573 ± 0.0029 |
| O=C(O)CC[C@H]1CC[C@@](c2cc(F)ccc2F)(S(=O)(=O)c2ccc(Cl)cc2)CC1 | 1.08 ± 0.054 |
| COc1ccc2[nH]c([S+]([O-])Cc3ncc(C)c(OC)c3C)nc2c1 (stereo not given) [Omeprazole] | 0.928 ± 0.022 |
| COc1nc(-c2ccc3c(c2)OCO3)n(-c2ccc(NC(=O)CSc3ccccc3)cc2)n1 [SecinH3] | 0.89 ± 0.011 |
| CCS(=O)(=O)Nc1ccc2c(c1)/C(=C(/Nc1ccc(CN3CCCCC3)cc1)c1ccccc1)C(=O)N2 [Hesperadin] | 0.258 ± 0.036 |
| O=C(Nc1ccc(-c2ccnc(Nc3ccc(N4CCOCC4)cc3)n2)cc1)C1CCCN1 (stereo not given) | 0.987 ± 0.078 |
| Nc1cccc2c1CN(C1CCC(=O)NC1=O)C2=O (stereo not given) [Lenalidomide (CC-5013)] | 0.999 ± 0.023 |
| NC(=S)N/N=C/c1ncccc1N [Triapine] | 0.885 ± 0.057 |
| O=C(NS(=O)(=O)c1ccc(Br)s1)c1ccc(Cl)cc1Cl [Tasisulam] | 1.07 ± 0.043 |
| C/C(=N\NC(=O)c1cccc(S(=O)(=O)N2CCOCC2)c1)c1cc(Cl)ccc1O | 0.497 ± 0.046 |
| COc1ccc(CNC(=O)Nc2ncc([N+](=O)[O-])s2)cc1 | 0.975 ± 0.08 |
| Cn1c2ccccc2c2c3c(c4c5ccccc5n(CCC#N)c4c21)CNC3=O | 0.96 ± 0.039 |
| OCCOCCN1CCN(C(c2ccccc2)c2ccc(Cl)cc2)CC1 (stereo not given) [Hydroxyzine 2HCl] | 1.08 ± 0.057 |
| Cc1ccccc1N1C(=O)c2cc(S(N)(=O)=O)c(Cl)cc2NC1C (stereo not given) [Metolazone] | 1.07 ± 0.052 |
| Cc1cc(-n2c(=O)[nH]c(=O)n(C)c2=O)ccc1Oc1ccc(SC(F)(F)F)cc1 [Toltrazuril] | 0.957 ± 0.046 |
| [I-].[K+] [Potassium Iodide] | 1.04 ± 0.044 |
| CC(=O)N1CCN(CCOc2ccc(C3CCN(C4=Nn5c(nnc5C(F)(F)F)CC4)CC3)cc2)CC1 | 1.01 ± 0.026 |
| C=CC(=O)N1CCC[C@@H](n2nc(-c3ccc(Oc4ccccc4)cc3)c3c(N)ncnc32)C1 | 0.989 ± 0.045 |
| O=C(O)c1ccccc1C(=O)Nc1ccc(-c2ccccc2)cc1 [Kartogenin] | 0.9 ± 0.068 |
| CC1=C(CC(=O)O)c2cc(F)ccc2/C1=C\c1ccc([S+](C)[O-])cc1 (stereo not given) [Sulindac] | 0.973 ± 0.063 |
| C=CC(=O)Nc1ccc2ncnc(Nc3ccc(OCc4cccc(F)c4)c(Cl)c3)c2c1 | 0.804 ± 0.029 |
